Screen size: about 260,000 compounds; about 890 (0.34%) were called active. The shares of active, inactive and inconclusive entries below differ from those in the screen. Calls come from the whole dose curve; as a rule, active = well fitted activation curve with a large enough effect; inconclusive = small, poorly fitted or top-dose-only effect; inactive = no such curve, though single readings can be large or run the other way. No potency is given beside an inconclusive call; the fits are too rough.
The molecules below were run against Pyruvate kinase PKM (Homo sapiens) (UniProt P14618) (assay: qHTS Assay for Activators of Human Muscle isoform 2 Pyruvate Kinase). Details: purified PKM2, Kinase-Glo ATP luminescence; Potency: activation; activation: at 57.5 µM (top of the series), 0% is enzyme alone, no compound.
Procedure, shortened: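 Purified hPK-M2 (>95% pure) converted ADP (0.1 mM final) to ATP with 0.5 mM PEP in 50 mM imidazole pH7.2, KCl, MgCl2, Tween 20, BSA; 1 h at room temperature. ATP detected by Kinase-Glo luminescence.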
% is set by controls: 0 for no effect and ±100 for the full control effect; potency is the fitted concentration of half-maximal effect; tags give direction and shape of the fitted curve.
Note: nearly all actives have a fitted effect of over 55% in size.

Sequence of UniProt P14618 (P14618 whole entry, looked up, canonical isoform): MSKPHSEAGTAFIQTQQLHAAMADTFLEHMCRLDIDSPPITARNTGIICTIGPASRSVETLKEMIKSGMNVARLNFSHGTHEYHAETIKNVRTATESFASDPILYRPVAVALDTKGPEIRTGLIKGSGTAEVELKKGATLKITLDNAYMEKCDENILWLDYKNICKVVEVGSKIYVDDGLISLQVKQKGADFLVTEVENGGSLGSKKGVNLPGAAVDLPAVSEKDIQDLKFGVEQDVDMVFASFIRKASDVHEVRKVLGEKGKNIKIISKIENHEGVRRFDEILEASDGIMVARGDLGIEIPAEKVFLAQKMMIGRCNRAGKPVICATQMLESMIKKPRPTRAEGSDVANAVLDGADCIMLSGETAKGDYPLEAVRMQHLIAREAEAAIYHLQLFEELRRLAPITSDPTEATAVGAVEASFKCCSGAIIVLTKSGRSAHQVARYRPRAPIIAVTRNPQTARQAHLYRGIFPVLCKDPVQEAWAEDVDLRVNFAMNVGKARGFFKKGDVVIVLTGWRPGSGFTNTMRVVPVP

Row | Structure (SMILES) | Potency | activation
1 | Cn1c(=O)c(=O)n(C)c2cc(S(=O)(=O)Nc3ccc4c(c3)OCCO4)ccc21 | inconclusive [rising, single point] | 
2 | COCCCNC(=S)NC1CC2CCCC(C1)N2Cc1ccco1 (stereo unspecified) | inconclusive [rising, single point] | 
3 | Cc1nc(N[C@@H](Cc2c[nH]c3ccccc23)C(=O)O)c2oc3ccccc3c2n1 | inconclusive [rising, single point] | 
4 | O=[N+]([O-])c1ccccc1S(=O)(=O)NCCC1=CCCCC1 |  | inactive: -1.56%
5 | CN1C(=O)Cc2cc(S(=O)(=O)Nc3ccc(Cl)cc3)ccc21 | inconclusive [rising, partial curve] | 
6 | O=C(O)COc1ccccc1C(Nc1ccccn1)c1cc(Cl)c2cccnc2c1O (stereo unspecified) |  | inactive: 9.37%
7 | CC1CCCCC1NC(=O)/C(C#N)=C/c1ccccc1F (stereo unspecified) |  | inactive: -12.1%
8 | CCNC(=S)SCCOc1ccccc1C | inconclusive [rising, single point] | 
9 | CCn1c(=O)cc(SCC(=O)NCc2ccco2)c2ccccc21 | inconclusive [rising, single point] | 
10 | Cc1ccc(N2C(=O)[C@@H]3[C@H](C2=O)[C@H]2C=CC=NN2[C@@H]3C(=O)Nc2ccccc2)cc1 | inconclusive [rising, partial curve] | 
11 | COc1ccc(CC(=O)N2CCN(S(=O)(=O)c3cccs3)CC2)cc1OC | inconclusive [rising, partial curve] | 
12 | CC(=O)N1N=C(c2ccc(Br)cc2)CC1c1cn(C)c2ccccc12 (stereo unspecified) | inconclusive [rising, single point] | 
13 | Brc1cccc(Nc2nc(-c3cccnc3)cs2)c1 | inconclusive [rising, single point] | 
14 | Cc1cc(OCCn2cnc3ccccc3c2=O)cc(C(C)C)c1 |  | inactive: -8.49%
15 | COc1ccc(C)cc1S(=O)(=O)NCC(c1cccnc1)N1CCc2ccccc2C1 (stereo unspecified) | active: 11.2 µM | 
16 | Cc1nc2c(c(=O)c3ccccc3n2C)c(=O)n1C1CCCCCC1 |  | inactive: -11.7%
17 | O=C(Nc1ccccc1Cl)Oc1ccc(-c2ccccc2)cc1 |  | inactive: 5.55%
18 | O=C(CSc1ncn[nH]1)Nc1ccc(Br)cc1F | inconclusive [rising, partial curve] | 
19 | O=C(N/N=C/c1ccc(F)cc1)c1c(O)c2ccccc2[nH]c1=O | inconclusive [rising, single point] | 
20 | CCN1CCN(Cc2cc(=O)oc3cc(C)cc(C)c23)CC1 | inconclusive [rising, single point] | 
21 | CCCCc1nc2c(c3c1C[C@H](C)OC3)CN(S(=O)(=O)CCCC)CC2 |  | inactive: -10.6% [at 11.5 µM, 0% is enzyme alone, no compound]
22 | CCC(=O)Nc1nc2ccccc2n1Cc1ccc(C)cc1 |  | inactive: 1.77%
23 | Cc1ccc2c(c1)N(C(=O)CCC(=O)NCc1ccccc1)CC(C)O2 (stereo unspecified) | inconclusive [rising, single point] | 
24 | Cc1c(C(=O)NCc2cccnc2)oc2ccc(S(=O)(=O)N3CCC4(CC3)OCCO4)cc12 |  | inactive: 11.7%
25 | Cc1ccc(/C=C2/NC(=O)N(c3ccccc3)C2=O)o1 | inconclusive [rising, partial curve] | 
26 | CC(=O)C1=C(C)NC(=O)NC1c1ccc(Cl)cc1 (stereo unspecified) |  | inactive: -4.7%

Row | Structure (SMILES) | Potency | activation
27 | COC(=O)c1sc(N2C(=O)C(O)=C(C(=O)c3ccc(C)o3)C2c2ccc(F)cc2)nc1C (stereo unspecified) | inconclusive [rising, full curve, poor fit] | 
28 | O=[N+]([O-])c1cc(C(F)(F)F)ccc1NCCc1c[nH]c2ccc(O)cc12 | inconclusive [rising, single point] | 
29 | O=[N+]([O-])c1cc(S(=O)(=O)Nc2ccccc2)ccc1NCc1cccnc1 | inconclusive [rising, partial curve] | 
30 | Cc1cccc(N2C(=O)CC(Sc3ccccc3C(=O)O)C2=O)c1 (stereo unspecified) | inconclusive [rising, partial curve] | 
31 | CCOC(=O)c1csc(NC(=O)c2ccc3c(c2)OCCO3)n1 |  | inactive: -7.07%
32 | COc1ccc2[nH]c(=O)c(-c3noc(-c4ccccc4)n3)cc2c1 | active: 11.2 µM | 
33 | Cc1sc2nc(CSCC(=O)Nc3ccc(N4CCOCC4)cc3)[nH]c(=O)c2c1C |  | inactive: 15.3%
34 | Cc1oc(=O)c(NC(=O)c2ccc(Cl)cc2)cc1C(=O)c1ccccc1 | active: 6.31 µM | 
35 | O=c1[nH]cnc2scc(-c3ccsc3)c12 | inconclusive [rising, partial curve] | 
36 | C=CCNC(=O)/C(C#N)=C/c1ccc(OS(=O)(=O)c2ccc(C)cc2)c(OC)c1 | inconclusive [rising, partial curve] | 
37 | OC1(C(F)(F)F)CC(O)(C(F)(F)F)n2nc(-c3ccccc3)cc2N1 (stereo unspecified) | inconclusive [rising, single point] | 
38 | CC(=O)c1ccc(NC(=O)c2cccc(S(=O)(=O)N3CCN(C)CC3)c2)cc1 |  | inactive: 2.42%
39 | COc1ccc(N2C(=O)CC(Sc3ncn[nH]3)C2=O)c(OC)c1 (stereo unspecified) | inconclusive [rising, single point] | 
40 | Cc1ccc2cc(CN(Cc3ccc4c(c3)OCO4)Cc3nnnn3Cc3ccco3)c(=O)[nH]c2c1C | inconclusive [rising, partial curve] | 
41 | Cc1ccc(C(=O)Nc2ccc(C(=O)N3CCCCC3)cc2)cc1 |  | inactive: 4.82%
42 | COc1ccc(-c2c(NC(=O)c3ccco3)oc3ccccc3c2=O)cc1OC |  | inactive: 1.17%
43 | COc1ccc(CC(=O)N/N=C/c2ccc(-c3cccc(C(=O)O)c3)o2)cc1OC | inconclusive [rising, partial curve] | 
44 | Cc1ccc(S(=O)(=O)N2CCOCC2)cc1C(=O)Nc1nc(-c2cccnc2)cs1 |  | inactive: 7.5%
45 | O=C(NC1CCCC1)C(c1ccncc1)N(Cc1ccco1)C(=O)c1ccc(-c2ccccc2)[nH]1 (stereo unspecified) | inconclusive [rising, single point] | 
46 | CN(c1ccc(C(=O)Nc2ccc3c(c2)OCCO3)cc1)S(C)(=O)=O |  | inactive: -18.2%
47 | COc1ccccc1NC(=O)c1sc2nc(N3CCOCC3)c3c(c2c1N)CCCC3 |  | inactive: 6.87%
48 | O=C(Cn1nnc(-c2ccccc2Cl)n1)N1CCN(S(=O)(=O)c2ccc(Cl)cc2)CC1 | active: 7.94 µM | 
49 | COCC(C)OC(=O)/C(C#N)=C\c1coc2ccc(C)cc2c1=O (stereo unspecified) |  | inactive: 0.976%
50 | CCc1nc2ccccc2nc1N1CCN(S(=O)(=O)c2ccccc2)CC1 | inconclusive [rising, partial curve] | 
51 | O=S(=O)(NCC1CCN(S(=O)(=O)c2ccccc2)CC1)c1ccccc1 | active: 2.82 µM | 
52 | O=C(Nc1cccc(NC(=O)c2cccs2)c1)c1ccc([N+](=O)[O-])o1 |  | inactive: -1.7%

Row | Structure (SMILES) | Potency | activation
53 | O=C(CNC(=O)c1ccc2c(c1)OCO2)N/N=C(Br)/C=C/c1ccccc1 |  | inactive: -1.77%
54 | CCCCn1c(-c2csc3ccccc23)n[nH]c1=S |  | inactive: -5.88%
55 | Cc1cccc(C)c1NC(=O)NC1(C(=O)NCCCN2CCOCC2)CCCCC1 | inconclusive [rising, single point] | 
56 | CCOc1cc(/C=C2\SC(=O)N(CC(=O)Nc3ccccc3F)C2=O)cc([N+](=O)[O-])c1O | inconclusive [rising, single point] | 
57 | OCCN1CCN(Cc2ccc3ccccc3c2)CC1 | inconclusive [rising, partial curve, poor fit] | 
58 | O=c1c2ccccc2nc(/C=C/c2ccc([N+](=O)[O-])o2)n1CCCO |  | inactive: 3.05%
59 | Cc1nn2c(NCCCN3CCOCC3)c3c(nc2c1-c1ccccc1)CCC3 |  | inactive: 22.8%
60 | O=C1N/C(=C/c2cccn2-c2ccccc2)C(=O)N1Cc1ccc(F)cc1 | inconclusive [rising, partial curve] | 
61 | N#CCC(=O)Nc1ccc(C(=O)Nc2cccc(S(N)(=O)=O)c2)cc1 | inconclusive [rising, single point] | 
62 | S=C(Nc1ccc(Cl)cc1)NC1CCN(Cc2ccccc2)CC1 |  | inactive: 3.72%
63 | CC(C)CNC(=S)NNC(=O)c1csc2ccccc12 |  | inactive: -1.51%
64 | Cc1ccc(S(=O)(=O)N2CCN(S(=O)(=O)c3ccc4c(c3)OCCO4)CC2)cc1 | inconclusive [rising, full curve] | 
65 | c1cncc(CSc2nnc3ccc(-c4cccs4)nn23)c1 | active: 25.1 µM | 
66 | CC1(C)Cc2c(c(-c3ccco3)nc3sc4c(NCCCO)ncnc4c23)CO1 | inconclusive [rising, single point] | 
67 | COc1cccc(-c2cnc(NCc3cc(Cl)ccc3O)n2C)c1 | inconclusive [rising, single point] | 
68 | O=C(CSc1nnc(-c2cccnc2)o1)Nc1ccccn1 | inconclusive [rising, single point] | 
69 | CCCCC(=O)NC(=S)NNC(=O)CC | inconclusive [rising, single point] | 
70 | CC(C)C(NC(=O)c1cccnc1)C(=O)O (stereo unspecified) |  | inactive: -2.39%
71 | CCOC(=O)CSc1nc2c(sc3ccc([N+](=O)[O-])cc32)c(=O)n1Cc1ccco1 | inconclusive [rising, full curve] | 
72 | O=C(O)CCN1C(=O)c2ccc(NC(=O)CSc3ccc(Cl)cc3)cc2C1=O |  | inactive: 0.77%
73 | CSc1nnc2n(-c3ccccc3)c(=O)c3c4c(sc3n12)CCC4 | inconclusive [rising, single point] | 
74 | O=C(CN1CCC(n2nnc3cc(F)ccc32)CC1)NC1CC1 |  | inactive: -2.34%
75 | CC(Nc1ccc(Br)cc1)C(=O)N/N=C/c1ccccc1OCc1ccccc1 (stereo unspecified) |  | inactive: -1.91%
76 | Cc1nc(NC2=NCN(Cc3cccnc3)CN2)nc2c(C)cccc12 | inconclusive [rising, single point] | 

Reference: PubChem BioAssay AID1631 (National Center for Advancing Translational Sciences (NCATS), 2009)
